{"source": "the supplement of paper PMC9174493", "note": "This is one part of the list. Single values of this set are uncertain. Values with irradiation are relative to irradiated vehicle.", "data": [{"system": "A549-Dual", "assay": "ISRE reporter (Lucia luciferase) activity, viability-corrected, relative to vehicle (fold change vs vehicle); higher = more activation of STING-IRF / NF-kB immune response reporter", "conditions": "10 µM; irradiation: 8 Gy/4 fr", "values": [{"molecule": "O=C(NCC(O)CO)c1c(I)c(C(=O)NCC(O)CO)c(I)c(N(CCO)C(=O)CO)c1I", "note": "(stereo unspecified) [Ioversol]", "ISRE reporter": 0.848}, {"molecule": "C[N+]1(C)CCC(OC(=O)C(O)(c2ccccc2)C2CCCC2)C1.[Br-]", "note": "(stereo unspecified) [Glycopyrrolate]", "ISRE reporter": 0.955}, {"molecule": "CCn1c(=O)c2c(nc(/C=C/c3ccc(OC)c(OC)c3)n2C)n(CC)c1=O", "note": "[Istradefylline]", "ISRE reporter": 0.623}, {"molecule": "Cc1c(O)c(=O)ccn1C", "note": "[Deferiprone]", "ISRE reporter": 1.35}, {"molecule": "CC(=O)Nc1ccc(C(=O)O)cc1.CC(=O)Nc1ccc(C(=O)O)cc1.CC(=O)Nc1ccc(C(=O)O)cc1.CC(O)CN(C)C.CC(O)CN(C)C.CC(O)CN(C)C.O=c1[nH]cnc2c1ncn2C1OC(CO)C(O)C1O", "note": "(stereo unspecified) [Isoprinosine]", "ISRE reporter": 0.678}, {"molecule": "CC(=O)O.CC(=O)O.CCC(C)CC(C)CCCCCCCCC(=O)NC1CC(O)C(NCCN)NC(=O)C2C(O)CCN2C(=O)C(C(O)CCN)NC(=O)C(C(O)C(O)c2ccc(O)cc2)NC(=O)C2CC(O)CN2C(=O)C(C(C)O)NC1=O", "note": "(stereo unspecified) [Caspofungin Acetate]", "ISRE reporter": 0.878}]}, {"system": "A549-Dual", "assay": "ISRE reporter (Lucia luciferase) activity, viability-corrected, relative to vehicle (fold change vs vehicle); higher = more activation of STING-IRF / NF-kB immune response reporter", "conditions": "10 µM; irradiation: none", "values": [{"molecule": "O=C(CO)C(O)C(O)C(O)CO", "note": "(stereo unspecified) [Fructose]", "ISRE reporter": 0.55}, {"molecule": "NCC1OC(OC2C(N)CC(N)C(O)C2OC2OC(CO)C(O)C2O)C(N)C(O)C1O.O=S(=O)(O)O", "note": "(stereo unspecified) [Ribostamycin Sulfate]", "ISRE reporter": 0.935}, {"molecule": "Cl.O=C(O)c1cn(-c2ccc(F)cc2)c2cc(N3CCNCC3)c(F)cc2c1=O", "note": "[Sarafloxacin HCl]", "ISRE reporter": 1.26}, {"molecule": "CC(O)C1C(=O)N2C(C(=O)[O-])=C(SC3Cn4cnc[n+]4C3)C(C)C12", "note": "(stereo unspecified) [Biapenem]", "ISRE reporter": 1.21}, {"molecule": "OC(Cn1cncn1)(Cn1cncn1)c1ccc(F)cc1F", "note": "[Fluconazole]", "ISRE reporter": 0.703}, {"molecule": "CCCC1CC(C(=O)NC(C(C)Cl)C2OC(SC)C(O)C(O)C2O)N(C)C1", "note": "(stereo unspecified) [Clindamycin]", "ISRE reporter": 0.625}, {"molecule": "CC(C)(O/N=C(/C(=O)NC1C(=O)N2C(C(=O)[O-])=C(C[n+]3ccccc3)CSC12)c1csc(N)n1)C(=O)O.O.O.O.O.O", "note": "(stereo unspecified) [Ceftazidime Pentahydrate]", "ISRE reporter": 0.939}, {"molecule": "Cc1ccc(=O)n(-c2ccccc2)c1", "note": "[Pirfenidone]", "ISRE reporter": 0.62}, {"molecule": "CN(C)CCCN1c2ccccc2Sc2ccccc21.Cl", "note": "[Promazine hydrochloride]", "ISRE reporter": 1.19}, {"molecule": "Nc1cc[nH]c(=O)n1", "note": "[Cytosine]", "ISRE reporter": 0.734}, {"molecule": "COC(=O)C1CC2=CC(=O)CCC2(C)C23OC2CC2(C)C(CCC24CCC(=O)O4)C13", "note": "(stereo unspecified) [Eplerenone]", "ISRE reporter": 0.722}, {"molecule": "Cc1ccc2c(Cl)cc(Cl)c(O)c2n1", "note": "[Chlorquinaldol]", "ISRE reporter": 1.57}, {"molecule": "NC1CONC1=O", "note": "[L-Cycloserine]", "ISRE reporter": 0.95}, {"molecule": "CC12CC3CC(C)(C1)CC(N)(C3)C2.Cl", "note": "[Memantine HCl]", "ISRE reporter": 0.763}, {"molecule": "O=c1n(CCCN2CCN(c3cccc(Cl)c3)CC2)nc2ccccn12", "note": "[Trazodone]", "ISRE reporter": 0.844}, {"molecule": "CCCc1ncc(C[n+]2ccccc2C)c(N)n1.Cl.[Cl-]", "note": "[Amprolium HCl]", "ISRE reporter": 1.18}, {"molecule": "O=CC(O)C(O)C(OC1OC(CO)C(O)C(O)C1O)C(O)CO", "note": "(stereo unspecified) [Maltose]", "ISRE reporter": 0.768}, {"molecule": "C=C1C2CCC(C2)C1(C)C", "note": "(stereo unspecified) [Camphene]", "ISRE reporter": 0.674}, {"molecule": "Cl.Cl.N=C(NCCCCCCNC(=N)NC(=N)Nc1ccc(Cl)cc1)NC(=N)Nc1ccc(Cl)cc1", "note": "[Chlorhexidine?2HCl]", "ISRE reporter": 5.13}, {"molecule": "COc1cc(N)c(Cl)cc1C(=O)NC1CCN(CCCOc2ccc(F)cc2)CC1OC", "note": "(stereo unspecified) [Cisapride]", "ISRE reporter": 0.735}, {"molecule": "CCN(CC)CC(=O)Nc1c(C)cccc1C", "note": "[Lidocaine]", "ISRE reporter": 0.804}, {"molecule": "CC1OC(OC2C(CO)OC(OCC3OC(OC(=O)C45CCC(C)(C)CC4C4=CCC6C7(C)CCC(OC8OCC(O)C(O)C8OC8OC(C)C(O)C(O)C8O)C(C)(CO)C7CCC6(C)C4(C)CC5)C(O)C(O)C3O)C(O)C2O)C(O)C(O)C1O", "note": "(stereo unspecified) [Hederacoside C]", "ISRE reporter": 0.606}, {"molecule": "COC(=O)Nc1nc2cc(C(=O)c3ccccc3)ccc2[nH]1", "note": "[Mebendazole]", "ISRE reporter": 1.26}, {"molecule": "CN1CCC(=C2c3ccccc3CC(=O)c3sccc32)CC1.O=C(O)/C=C/C(=O)O", "note": "[Ketotifen Fumarate]", "ISRE reporter": 0.747}, {"molecule": "CCOC(=O)C(CCc1ccccc1)NC(C)C(=O)N1C(C(=O)O)CC2CCCC21", "note": "(stereo unspecified) [Ramipril]", "ISRE reporter": 1.04}, {"molecule": "CS(=O)(=O)Nc1ccc([N+](=O)[O-])cc1Oc1ccccc1", "note": "[Nimesulide]", "ISRE reporter": 0.7}, {"molecule": "CCC1C(O)C2C3CCC(C(C)CCC(=O)O)C3(C)CCC2C2(C)CCC(O)CC12", "note": "(stereo unspecified) [Obeticholic Acid]", "ISRE reporter": 0.797}, {"molecule": "OCCc1ccccc1", "note": "[Phenethyl alcohol]", "ISRE reporter": 0.842}, {"molecule": "CCCCc1nc(Cl)c(CO)n1Cc1ccc(-c2ccccc2-c2nnn[nH]2)cc1.[KH]", "note": "[Losartan Potassium (DuP 753)]", "ISRE reporter": 0.701}, {"molecule": "CCC(=O)OC1(C(=O)CCl)C(C)CC2C3CCC4=CC(=O)C=CC4(C)C3(F)C(O)CC21C", "note": "(stereo unspecified) [Clobetasol propionate]", "ISRE reporter": 0.421}, {"molecule": "Clc1ccc(C(Cn2ccnc2)OCc2ccsc2Cl)c(Cl)c1", "note": "(stereo unspecified) [Tioconazole]", "ISRE reporter": 0.443}, {"molecule": "CCN1CC(CCN2CCOCC2)C(c2ccccc2)(c2ccccc2)C1=O.Cl.O", "note": "(stereo unspecified) [Doxapram HCl]", "ISRE reporter": 0.753}, {"molecule": "C1CNCCN1.CC12CCC3c4ccc(OS(=O)(=O)O)cc4CCC3C1CCC2=O", "note": "(stereo unspecified) [Estropipate]", "ISRE reporter": 0.641}, {"molecule": "O=c1c(O)c(-c2ccc(O)cc2O)oc2cc(O)cc(O)c12", "note": "[Morin]", "ISRE reporter": 0.332}, {"molecule": "O=C(NCC(O)CO)c1c(I)c(C(=O)NCC(O)CO)c(I)c(N(CCO)C(=O)CO)c1I", "note": "(stereo unspecified) [Ioversol]", "ISRE reporter": 0.546}, {"molecule": "C[N+]1(C)CCC(OC(=O)C(O)(c2ccccc2)C2CCCC2)C1.[Br-]", "note": "(stereo unspecified) [Glycopyrrolate]", "ISRE reporter": 0.694}, {"molecule": "CCn1c(=O)c2c(nc(/C=C/c3ccc(OC)c(OC)c3)n2C)n(CC)c1=O", "note": "[Istradefylline]", "ISRE reporter": 0.637}, {"molecule": "Cc1c(O)c(=O)ccn1C", "note": "[Deferiprone]", "ISRE reporter": 0.853}, {"molecule": "CC(=O)Nc1ccc(C(=O)O)cc1.CC(=O)Nc1ccc(C(=O)O)cc1.CC(=O)Nc1ccc(C(=O)O)cc1.CC(O)CN(C)C.CC(O)CN(C)C.CC(O)CN(C)C.O=c1[nH]cnc2c1ncn2C1OC(CO)C(O)C1O", "note": "(stereo unspecified) [Isoprinosine]", "ISRE reporter": 0.966}, {"molecule": "CC(=O)O.CC(=O)O.CCC(C)CC(C)CCCCCCCCC(=O)NC1CC(O)C(NCCN)NC(=O)C2C(O)CCN2C(=O)C(C(O)CCN)NC(=O)C(C(O)C(O)c2ccc(O)cc2)NC(=O)C2CC(O)CN2C(=O)C(C(C)O)NC1=O", "note": "(stereo unspecified) [Caspofungin Acetate]", "ISRE reporter": 1.03}]}]}
